# Reference: PMC4336329 (PLoS ONE, 2015)
# Hit rate of the full screen: of about 310,000 compounds, about 14,000 (4.5%) showed an effect of 50% or more. Effects have a minus sign here. The list shows a part of the results.
# Target: human ether-à-go-go-related gene (hERG) potassium channel (human, UniProt Q12809)
# Assay: primary screen, population patch clamp on CHO cells stably expressing hERG
# 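Further: peak tail current of the secondary pulse compared with the same well before compound.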
# Chain of human ether-à-go-go-related gene (hERG) potassium channel (Q12809 whole entry, looked up): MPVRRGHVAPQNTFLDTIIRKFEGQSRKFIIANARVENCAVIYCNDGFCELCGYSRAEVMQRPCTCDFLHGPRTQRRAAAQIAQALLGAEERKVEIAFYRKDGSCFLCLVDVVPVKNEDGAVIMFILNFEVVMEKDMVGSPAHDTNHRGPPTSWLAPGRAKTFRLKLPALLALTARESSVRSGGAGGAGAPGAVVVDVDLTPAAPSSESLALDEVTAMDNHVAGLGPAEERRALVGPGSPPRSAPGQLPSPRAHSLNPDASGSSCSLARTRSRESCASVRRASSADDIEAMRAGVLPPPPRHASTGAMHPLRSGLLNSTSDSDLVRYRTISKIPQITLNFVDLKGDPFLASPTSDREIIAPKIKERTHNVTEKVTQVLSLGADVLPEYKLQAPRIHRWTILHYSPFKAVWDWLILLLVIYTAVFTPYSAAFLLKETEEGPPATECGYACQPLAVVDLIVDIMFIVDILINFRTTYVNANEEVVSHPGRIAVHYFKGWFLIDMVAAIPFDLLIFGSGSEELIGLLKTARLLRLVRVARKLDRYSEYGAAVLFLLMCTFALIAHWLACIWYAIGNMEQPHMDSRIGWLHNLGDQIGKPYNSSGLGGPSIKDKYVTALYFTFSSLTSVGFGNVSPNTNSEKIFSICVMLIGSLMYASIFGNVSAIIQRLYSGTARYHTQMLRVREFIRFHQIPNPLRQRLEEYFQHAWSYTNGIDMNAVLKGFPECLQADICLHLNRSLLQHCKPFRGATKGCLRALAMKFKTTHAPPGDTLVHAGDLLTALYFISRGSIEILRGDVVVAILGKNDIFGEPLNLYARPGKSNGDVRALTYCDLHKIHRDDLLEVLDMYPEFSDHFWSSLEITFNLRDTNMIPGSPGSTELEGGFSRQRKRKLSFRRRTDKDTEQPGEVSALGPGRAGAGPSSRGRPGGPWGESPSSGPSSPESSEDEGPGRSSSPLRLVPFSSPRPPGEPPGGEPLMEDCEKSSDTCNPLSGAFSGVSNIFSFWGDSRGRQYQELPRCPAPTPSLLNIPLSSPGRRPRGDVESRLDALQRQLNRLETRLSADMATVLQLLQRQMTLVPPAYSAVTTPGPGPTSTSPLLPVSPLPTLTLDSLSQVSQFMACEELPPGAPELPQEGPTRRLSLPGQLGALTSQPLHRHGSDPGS
row,Compound,"hERG current change (%, negative = inhibition) at 10uM [%]"
1,COc1cc(Nc2ccc(C)cc2)c([N+](=O)[O-])nc1[N+](=O)[O-],-1.14
2,COC(=O)CCC(=O)OC1(C)C(=O)C=C2C=C(C3CC3)N(C(CO)CO)C=C2C1=O (stereo not drawn),5.72
3,Nc1ccc(C(=O)N/N=C/c2sc(N3CCOCC3)nc2-c2ccccc2)cc1,-21.6
4,CCCn1c(SCC(=O)c2[nH]c(C)c(C(C)=O)c2C)n[nH]c1=O,-1.57
5,COC(=O)C1=C(c2ccc(F)cc2OCc2ccccc2)C[C@@H]2CC[C@H]1N2C(=O)NCCOc1ccccc1,23.6
6,CC(C)c1ccc(S(=O)(=O)N2CCN(C(=O)C3CCCCC3)CC2)cc1,-2.35
7,Cc1cc(O)c(C(=O)/C=C/c2ccccc2O)c(=O)o1,2.46
8,CCOC(=O)Cc1csc(NC(=O)CSc2nnc(Cc3csc(N)n3)n2C)n1,-1.19
9,S=C(Nc1ccc(Cl)cc1)c1nc2ccccc2[nH]1,17.6
10,O=C(O)c1ccccc1C(=O)Nc1cc(C(F)(F)F)ccc1N1CCCC1,-3.78
11,COC(=O)CN(c1nc(C)c(Br)c(OC)n1)S(=O)(=O)c1ccc(C)cc1,-9.43
12,CC(C)[C@H](NC(=O)OC(C)(C)C)c1nnc(SCc2cccc(F)c2)o1,-43.1
13,COc1cc(C(=O)Nc2c(C)cc(C)cc2C)c([N+](=O)[O-])cc1OC,5.56
14,Cc1ccccc1N(CC(=O)NC1CCCC1)C(=O)C1(C)CC(=O)N=C2C=CC=CN21 (stereo not drawn),18.5
15,O=C(CSc1n[nH]c(-c2ccncc2)n1)Nc1ccc(Cl)c(Cl)c1,-7.17
16,COc1ccc(Nc2nc(-c3ccccc3)nc3ccccc23)cc1.Cl,10.8
17,CC(C)C(C(=O)N1CCOCC1)N1C(=O)c2ccccc2C1=O (stereo not drawn),3.41
18,Nc1cc(C(=O)O)c(N)c2c1C(=O)c1ccccc1C2=O,7.98
19,Cc1cc(=O)oc2cc(OCC(=O)N3CCC(C(N)=O)CC3)ccc12,4.72
20,COCCNC(=S)Nc1ccc(N2CCOCC2)c(S(=O)(=O)Nc2ccccc2OC)c1,-14.9
21,COc1ccc(OC)c(CN2CCN(C(=O)CCC(=O)c3cccs3)CC2)c1,-19.4
22,C=CCSc1nnc(COc2ccc(=O)n(-c3ccccc3)n2)n1CC,-2.15

row,Compound,"hERG current change (%, negative = inhibition) at 10uM [%]"
1,O=C(NC1CCCCCC1)c1ccc(N2CCCC2=O)cc1,2.01
2,c1ccc(OCc2nnc3sc(-c4cccs4)nn23)cc1,5.59
3,CCOCCCn1c(N)c(C(=O)Nc2sc3c(c2C(=O)OC)CCCC3)c2nc3ccccc3nc21,4.07
4,CCOc1cc(CN2CCCC(CNC(=O)c3ccc(F)cc3)C2)ccc1OC (stereo not drawn),-66.2
5,CCCCN(Cc1ccccc1)C(=O)C1CCCN(S(=O)(=O)c2cnc[nH]2)C1 (stereo not drawn),-4.62
6,COc1cccc(Oc2ccc(OC)cc2C(=O)O)c1,17.2
7,Cn1c(-c2ccccc2)cc2onc(-c3ccccc3)c2c1=O,18.1
8,C=CCn1cc(C=C2C(=O)NC(=O)NC2=O)c2ccccc21,9.62
9,CCOCCCNC(=O)Cn1cc2c(n1)CCCCC2,0.733
10,Cc1cc(C)n(-c2nc3c(c(=O)n(C)c(=O)n3C)n2CCO)n1,8.67
11,Cc1c(C)c2c(OCC(=O)NC3CC3)cc3c(c2oc1=O)CCC(C)(C)O3,11.6
12,Cc1ccc(C(=O)O)cc1N1CCCC1=O,48.5
13,O=C(c1ccc(CSc2ccccc2)cc1)N1CCN(c2ccccc2)CC1,-11.7
14,Cc1cc(OCc2nn[nH]n2)c2c(C)c(Cc3ccccc3)c(=O)oc2c1,0.151
15,CCC(C)Oc1cc(-c2ccnc(Nc3cccc(Cl)c3)n2)ccn1 (stereo not drawn),-5.36
16,CCOc1ccc(NC(=O)NCCN2C(C)CCCC2C)cc1 (stereo not drawn),-26.6
17,O=C1CSC(c2cccnc2)N1c1ccccc1 (stereo not drawn),13
18,COC(C(=O)Nc1ccnn1C1CCN(C(=O)c2ccc(C=O)cc2)CC1)c1ccccc1 (stereo not drawn),-39.9
19,Cc1cccc(C(=O)N/N=C/c2coc3ccccc3c2=O)c1,5.39
20,O=C(O)c1cc(N/N=C/C=C/c2ccccc2[N+](=O)[O-])ccc1Cl,12.5
21,COc1ccc(-c2nc(CS(=O)(=O)CC(=O)NCc3cccc(OC)c3OC)c(C)o2)cc1,-18.4
22,Cn1cc(C=C(C#N)C#N)c2ccccc21,6.83

row,Compound,"hERG current change (%, negative = inhibition) at 10uM [%]"
1,CCCOC(=O)C1[C@H]2C(=O)N(C(C)c3ccc(OC)cc3)C[C@]23C=C[C@H]1O3 (stereo partly drawn),1.3
2,O=C1c2ccccc2C(=O)N1Cc1nc2ccccc2o1,22.5
3,Cc1cc(=O)oc2cc(OC(=O)c3nn(C(C)C)c(=O)c4ccccc34)ccc12,10.1
4,COC(=O)c1ccccc1S(=O)(=O)N1CCC(C(=O)NC2=NCCS2)CC1,-32.8
5,Cc1ccccc1S(=O)(=O)Cc1ccc(C(=O)NCCCOC(C)C)o1,-14.7
6,C=CCn1c(SCC2CCCCO2)nc2sc(CC)cc2c1=O (stereo not drawn),-2.19
7,COC1(OC)N=C(NC(=O)Nc2ccccc2)C2(C#N)C(c3ccccc3)C12C#N (stereo not drawn),14.5
8,CCCC(=O)OC/C(O)=C(\C#N)c1nc2ccccc2[nH]1,19.1
9,COc1ccc(CCNC(=O)CCS(=O)(=O)c2ccc3c(c2)NC(=O)CO3)cc1OC,14.5
10,COC(=O)c1nc(-c2ccc3c(n2)C(=O)C(N)=C(OC)C3=O)c(N)c(-c2ccc(OC)c(OC)c2O)c1C,11.8
11,ONC(=Nc1ccc(Cl)cc1)c1ccccc1Cl,-20.1
12,O=C(ON=C1CCN(S(=O)(=O)c2ccccc2)CC1)c1cccc(Cl)c1,0.716
13,Cc1cc(C(=O)NN=C(Cc2ccccc2)Cc2ccccc2)c(C)o1,1.42
14,COC(=O)C1=C(c2ccc(F)cc2F)C[C@@H]2CC[C@H]1N2C(=O)N1CCOCC1,0.813
15,Cc1ccc(C(C)(C)C)c(SCC(=O)Nc2nnc(C)s2)c1,2.81
16,COC(=O)c1ccc(CSc2nnc(C)s2)cc1,8.93
17,COc1ccc(Cn2c(O)c(/C=N/NC(=O)c3ccccc3)c(=O)[nH]c2=O)cc1,13.1
18,COc1ccccc1OCCCCn1ncc2ccc(OC)c(OC)c2c1=O,10.4
19,O=C(CN1C(=O)CN=C(c2ccccc2Cl)c2cc(Cl)ccc21)NCc1ccco1,3.75
20,O=C(Cn1nc(C(=O)O)c2ccccc2c1=O)Nc1ccc2c(c1)C(=O)c1ccccc1C2=O,12.5
21,CC1=C(C(=O)NCc2ccccn2)C2(CCC(C)CC2)OC1=O (stereo not drawn),-2.42
22,COc1ccc(NC(=O)CSCC(=O)Nc2ccc(S(=O)(=O)N3CCCC3)cc2)cc1,26.7

row,Compound,"hERG current change (%, negative = inhibition) at 10uM [%]"
1,Cc1ccc(C(=O)CSc2nc3cc(S(=O)(=O)N4CCOCC4)ccc3o2)cc1,6.11
2,CC(C)C(O)(C(=O)NNc1ccccc1)C(C)C,-10.7
3,Cc1ccc(C(=O)C2Oc3ccccc3C3CC(c4ccc(C)cc4)=NN23)cc1 (stereo not drawn),5.49
4,O=C(c1cnc2n(c1=O)CCS2)N1CCCc2ccccc21,-0.974
5,COc1ccc(C2C(C#N)=C(N)Oc3cc(O)ccc32)cc1C (stereo not drawn),-26.1
6,O=C1NCCO1,-1.82
7,CCOC(=O)c1c(O)c2ccccc2n(CC)c1=O,10.4
8,CC(C)Cn1c(=O)oc2ccccc21,15.1
9,N#C/C(=C\c1c(Cl)cccc1Cl)c1nc2ccccc2o1,-3.16
10,COc1ccc(/C=C(/NC(=O)c2ccco2)C(=O)NCc2ccco2)cc1OC,6.29
11,O=C(CSc1nc2ccccc2c(=O)n1Cc1ccc(C(=O)NC2CC2)cc1)NCc1ccco1,-51.5
12,O=C(COc1ccccc1)Nc1nnc(COc2ccccc2)s1,4.24
13,CCN(Cc1ccccc1)C(=O)CCNS(=O)(=O)c1cc(Br)cnc1N,-14.9
14,COc1cc(C)ccc1OCc1cc(C(=O)N2CCN(C)C[C@@H]2c2ccccc2)no1,-2.74
15,COc1cc(CC2(CCc3ccncc3)C(=O)N(C)C(=O)N(C)C2=O)cc(OC)c1OC,-8.33
16,Cc1oc(-c2ccc(Cl)cc2)nc1CN1CCCC(C(=O)NCCCN2CCOCC2)C1 (stereo not drawn),-19.4
17,Cc1ccc(C(=O)NC2CC3CCC(C2)N3C)cc1 (stereo not drawn),5.71
18,O=C(COC(=O)CCc1nc2ccccc2c(=O)[nH]1)NC(=O)NC1CCCC1,11.7
19,COc1ccc(F)cc1S(=O)(=O)Nc1ccc2c(c1)OCO2,6.15
20,N#C/C(=C/c1ccc(O)cc1)C(=O)NCc1ccc(Cl)cc1,23.1
21,COc1cccc(-c2cc(C(=O)Nc3ccc(N(C)C(C)=O)cc3)c3cc(Br)ccc3n2)c1,6.81
